{"source": "PubChem BioAssay AID463173", "about": "(ICCB-Longwood Screening Facility, Harvard Medical School, 2010)", "note": "The whole screen tested about 52,000 compounds, of which about 1,700 (3.3%) were called active. Rule as the data show it: active = survival mostly below about 52% (no sharp cut-off); inactive = mostly above about 56%. This is one part of the list.", "data": [{"tested_on": "Wild type", "experiment": "S. aureus survival, RN4220 and DeltatarO strains – OD600, teichoic acid synthesis inhibitors, primary screen (AID 463173)", "conditions": "S. aureus RN4220 wild type/DeltatarO growth, OD600, 18 h, stronger effect = lower value, screened at 18.75 µg/mL (by protocol)", "values": [{"smiles": "CC(C)C(c1nnnn1C1CCCC1)N1CCc2ccccc21", "note": "(centres undefined)", "survival": "inactive: 104%"}, {"smiles": "O=C(CS(=O)(=O)c1nc(-c2ccc(Cl)cc2)cn1-c1ccccc1)Nc1cccc(Cl)c1", "survival": "inactive: 103%"}, {"smiles": "O=C(Cn1c2ncccc2c(=O)n1-c1ccccc1)NCc1ccccc1", "survival": "inactive: 80%"}, {"smiles": "O=C(NCc1ccccc1Cl)c1cc(-c2ccccc2)n[nH]1", "survival": "inactive: 74%"}, {"smiles": "COCCn1c(CCC(=O)Nc2ccc(OC)c(OC)c2)nc2cccnc21", "survival": "inactive: 90%"}, {"smiles": "Cc1ccc(NC(=O)c2ccc(F)c(S(=O)(=O)NCCc3ccccc3)c2)cc1F", "survival": "inactive: 99%"}, {"smiles": "COc1cccc(C(=O)CS)c1", "survival": "inactive: 105%"}, {"smiles": "Cc1nc(-c2ccccc2)sc1-c1ccc(SCC(=O)Nc2ccccc2)nn1", "survival": "inactive: 41%"}, {"smiles": "Cc1ccc(NC(=O)CSc2nc(C)cc(C)c2C#N)cc1", "survival": "inactive: 99%"}, {"smiles": "COc1cccc(CNC(=O)Cc2c(C)c3cc4c(C)coc4cc3oc2=O)c1", "survival": "inactive: 86%"}, {"smiles": "CCc1ccc(NC(=O)N2CCN(c3nnc(C)c4c(C)n(-c5ccc(Cl)cc5)nc34)CC2)cc1", "survival": "inactive: 128%"}, {"smiles": "COc1cccc(NC(=O)c2csc3c2CCCCC3)c1", "survival": "inactive: 26%"}, {"smiles": "Cc1cc(C)cc(NC(=O)CSc2nccn2C2CCCC2)c1", "survival": "inactive: 71%"}, {"smiles": "c1ccc(Nc2c(-c3ccccc3)nc3ncccn23)cc1", "survival": "inactive: 78%"}, {"smiles": "O=C(CCNS(=O)(=O)c1ccc(Br)s1)Nc1ccc(Br)cc1", "survival": "inactive: 78%"}, {"smiles": "CCN1C(=O)SC(CC(=O)O)C1=O", "note": "(centres undefined)", "survival": "inactive: 99%"}, {"smiles": "CN(CC(=O)N1CCCC1=O)Cc1ccccc1", "survival": "inactive: 102%"}, {"smiles": "Cc1ccc(CNCc2ccc3c(c2)n(C)c(=O)n3C)cc1", "survival": "inactive: 87%"}, {"smiles": "COc1ccc(CN(C(=O)Nc2cc(C)ccc2C)C2CCN(C(C)=O)CC2)cc1", "survival": "inactive: 76%"}, {"smiles": "COc1cc(NS(=O)(=O)c2ccc(NC(=O)COc3ccc(Cl)cc3Cl)cc2)nc(OC)n1", "survival": "inactive: 93%"}, {"smiles": "CCOc1cccc(CC(=O)NCc2ccc3c(c2)CCN3C(=O)c2cccc(C)c2)c1OCC", "survival": "inactive: 95%"}, {"smiles": "COc1ccc2c(c1)c(=O)c(S(=O)(=O)c1ccc(F)cc1)cn2CC(=O)Nc1ccc(C)cc1C", "survival": "inactive: 87%"}, {"smiles": "CCN1C(=O)c2ccccc2Sc2ccc(NC(=O)Cc3ccc(OC)c(OC)c3)cc21", "survival": "inactive: 89%"}, {"smiles": "COc1ccc(CNC(=O)c2cnc3sc4cc(OC)ccc4n3c2=O)cc1", "survival": "inactive: 81%"}, {"smiles": "O=C(NCc1ccccc1Cl)C(=O)NCC(c1ccc2c(c1)OCO2)N1CCOCC1", "note": "(centres undefined)", "survival": "inactive: 84%"}, {"smiles": "CN1C(=O)c2ccccc2N(C)C1c1ccc(F)cc1", "note": "(centres undefined)", "survival": "inactive: 113%"}, {"smiles": "CCOc1ccccc1N(CC)C(=O)Cn1ncc2c1-c1ccccc1OC2", "survival": "inactive: 71%"}, {"smiles": "CCOc1ccc(NC(=O)CSc2nc(-c3ccccc3)c3cc(OCC)ccc3n2)cc1", "survival": "inactive: 85%"}, {"smiles": "CCOc1ccc2nc(N(Cc3cccnc3)C(=O)c3ccco3)sc2c1", "survival": "inactive: 69%"}, {"smiles": "O=C(c1cc(S(=O)(=O)N2CCCC2)c[nH]1)N1CCN(c2cccc(Cl)c2)CC1", "survival": "inactive: 109%"}, {"smiles": "O=C(CSc1nc2ccccc2c(=O)n1Cc1ccco1)OC1CCCCC1", "survival": "inactive: 108%"}, {"smiles": "CCC(CC)C(=O)N1CCc2cc(OC)c(OC)cc2C1COc1ccc2c(C)cc(=O)oc2c1", "note": "(centres undefined)", "survival": "inactive: 71%"}, {"smiles": "CCCSc1ncc(Cl)c(C(=O)NCc2ccc(C)cc2)n1", "survival": "inactive: 85%"}, {"smiles": "COc1ccc(CNC(=O)CCS(=O)(=O)c2cc3c4c(c2)CCN4C(=O)CC3)cc1OC", "survival": "inactive: 65%"}, {"smiles": "Cc1ccc(S(=O)(=O)N(CCO)Cc2ccccc2)cc1", "survival": "inactive: 105%"}, {"smiles": "Cc1cc(Cl)ccc1NC(=O)CCS(=O)(=O)c1ccc2c(c1)CC(C)N2C(=O)C1CC1", "note": "(centres undefined)", "survival": "inactive: 131%"}, {"smiles": "CCOC(=O)c1c(C)[nH]c(CCC(=O)NCc2cc(Br)ccc2OC)c1C", "survival": "inactive: 115%"}, {"smiles": "COc1ccc(C2C(C(=O)Nc3cccnc3)=C(C)Nc3nc(-c4ccc(OC)c(OC)c4)nn32)cc1", "note": "(centres undefined)", "survival": "inactive: 143%"}, {"smiles": "O=C(Nc1cc(Cl)ccc1O)c1cc(-c2ccc3c(c2)OCO3)on1", "survival": "inactive: 101%"}, {"smiles": "Cc1c(C(=O)N2CCCC2)oc2c1-c1nn(CC(=O)NCc3ccccc3F)cc1CC2", "survival": "inactive: 90%"}, {"smiles": "CCN(C(=O)CSc1nnc(-c2ccccc2Br)o1)c1nc(C)cs1", "survival": "inactive: 116%"}, {"smiles": "CCc1nn2c(=O)c(S(=O)(=O)Nc3ccc(C)cc3C)c(C)nc2s1", "survival": "inactive: 75%"}, {"smiles": "COc1ccc(-c2nc(CSCC(=O)NCCc3ccc(OC)c(OC)c3)c(C)o2)cc1", "survival": "inactive: 85%"}, {"smiles": "Cc1sc(NC(=O)C2c3ccccc3Oc3ccccc32)c(C(=O)OC(C)C)c1C", "survival": "inactive: 62%"}, {"smiles": "Cc1ccc(S(=O)(=O)c2nnn3c2nc(N(C)Cc2ccccc2)c2cc(Cl)ccc23)cc1C", "survival": "inactive: 125%"}, {"smiles": "COc1ccccc1CNC(=O)c1cc2cccc3c2n1CCS3", "survival": "inactive: 78%"}, {"smiles": "CCCCCc1nc2ccccc2c(=O)n1N", "survival": "inactive: 115%"}, {"smiles": "CC(C)NC(=O)C1=CC(c2ccc3c(c2)OCO3)=NS(=O)(=O)N1C", "survival": "inactive: 87%"}, {"smiles": "Cc1cc(NCCN(C)C)n2nc(C)c(-c3ccccc3)c2n1", "survival": "inactive: 110%"}, {"smiles": "COc1ccc(-c2nnn(CC(=O)N(Cc3ccco3)C(C(=O)NCC3CCCO3)c3ccco3)n2)cc1", "note": "(centres undefined)", "survival": "inactive: 107%"}, {"smiles": "CC1CCN(c2nc3ccccc3nc2SCC(=O)Nc2ccccc2C(C)C)CC1", "survival": "active: -16%"}, {"smiles": "CCCN1CCN(c2ncnc3sc(C(=O)Nc4ccc(OC(F)(F)F)cc4)c(C)c23)CC1", "survival": "inactive: 83%"}, {"smiles": "Cc1nnc(N2CCCC(C(=O)Nc3cc(F)ccc3F)C2)c2nn(-c3ccccc3)c(C)c12", "note": "(centres undefined)", "survival": "inactive: 89%"}, {"smiles": "CCCCC(=O)OCc1cc(=O)n2nc(C3CC3)sc2n1", "survival": "inactive: 135%"}, {"smiles": "CCCCN(CC)CCCNC(=O)c1ccc2c(c1)N(Cc1ccc(C)cc1)C(=O)c1ccccc1S2", "survival": "inactive: 87%"}, {"smiles": "O=C(CS(=O)(=O)c1cccc2nsnc12)N1CCN(c2ccc(F)cc2)CC1", "survival": "inactive: 97%"}, {"smiles": "CC(=O)c1ccc(NC(=O)Cn2c(=O)nc(-c3ccccc3)c3ccccc32)cc1", "survival": "inactive: 70%"}, {"smiles": "COc1cc(NC(=O)COCc2cc(-c3ccc4c(c3)OCO4)on2)c(OC)cc1Cl", "survival": "inactive: 101%"}, {"smiles": "CCOc1ccc(C(=O)c2cn(CC(=O)Nc3ccc(C)c(Cl)c3)c3ccc(OCC)cc3c2=O)cc1", "survival": "inactive: 90%"}]}]}
